Laboratory results from PubChem BioAssay AID526 (National Center for Advancing Translational Sciences (NCATS), 2006).
Out of some 67,000 compounds screened, fewer than 10 were called active. This list was built around the results that the source calls inconclusive (neither active nor inactive); the mix of calls is not that of the screen. Calls come from the whole dose curve; as a rule, active = well fitted activation curve with a large enough effect (not every such curve was filed as active); inconclusive = small, poorly fitted or top-dose-only effect, or another doubt; inactive = no such curve, though single readings can be large or run the other way.
Potency is the fitted concentration of half-maximal effect.

Assay: Ubiquitin-GFP Assay
Details: Ubiquitin-GFP reporter cells, proteasome inhibition, GFP fluorescence; activation (GFP accumulation): at 45.9 µM (top of the series), untreated = 0%, 10 µM MG-132 = 100% unless noted
Summary of the method: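 U2OS cells stably expressing ubiquitin(G76V)-GFP, seeded overnight in 0.5% FBS medium, were exposed to compounds (qHTS, 46 uM to 2.9 nM) for 4 hr at 37 °C. GFP-positive cells were counted by laser cytometry (488 ex/515 em), normalized between basal and 10 uM MG-132.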
In the case of `COc1ccc2c(c1OC)C(=O)N1c3ccccc3COC21` (stereo not given), the activation (GFP accumulation) is reported as “inactive”. For `CC(=O)O[C@H]1CC[C@@]2(C)[C@@H](CC[C@@]3(C)[C@H]2C(=O)C=C2[C@H]4C[C@](C)(C(=O)OCCN5CCCCC5)CC[C@]4(C)CC[C@@]23C)C1(C)C`, the activation (GFP accumulation) was “inactive”. With `CN(C)S(=O)(=O)N1CCC(CCCC2CCN(S(=O)(=O)N(C)C)CC2)CC1` the activation (GFP accumulation) was inconclusive: -4.17% [activator]. In the case of `COc1ccc(C2CC(C(F)(F)F)n3nc(CO)c(Cl)c3N2)cc1OC` (stereo not given), the activation (GFP accumulation) is reported as “inactive”. For `COc1ccccc1CNc1nc(-c2ccccc2OC)nc2ccccc12`, the activation (GFP accumulation) was “inactive”. For `O=C(NCC1(N2CCOCC2)CCCCC1)c1ccc(Cl)c(S(=O)(=O)NCc2ccco2)c1`, the activation (GFP accumulation) was inconclusive: 9.68% [activator]. For `COc1cccc(Cn2c(=O)cnc3cnc(Nc4ccccc4)nc32)c1`, the activation (GFP accumulation) was inconclusive: 141% [activator]. With `N#CCCn1c(=O)c(CCc2ccccc2)nc2cnc(Oc3cccc(Cl)c3)nc21` the activation (GFP accumulation) was “inactive”. For `CCN(CCCNC(=O)Cn1cc2c(n1)CCCC2)c1cccc(C)c1`, the activation (GFP accumulation) was inconclusive: 11.8% [activator]. In the case of `O=C(Nc1cccc2c1CCCC2)C1CCCN(S(=O)(=O)c2cccc3nonc23)C1` (stereo not given), the activation (GFP accumulation) is reported as inconclusive: 31.4% [activator]. In the case of `N#Cc1c(NC(=O)CSc2nnc(-c3ccccc3O)n2-c2ccccc2)sc2c1CCCC2`, the activation (GFP accumulation) is reported as “inactive”. With `Cc1ccc2oc(=O)c3cnn(CC(=O)NCCN4CCOCC4)c3c2c1` the activation (GFP accumulation) was inconclusive: 1.16% [activator]. With `CCc1ccc(OCc2nc(-c3ccccn3)no2)c(Br)c1` the activation (GFP accumulation) was “inactive”. For `O=C1C2CC=C(Cl)CC2C(=O)N1CN(Cc1ccco1)CN1C(=O)C2CC=C(Cl)CC2C1=O` (stereo not given), the activation (GFP accumulation) was inconclusive: 36.4% [activator] [at 9.17 µM, untreated = 0%, 10 µM MG-132 = 100%]. For `O=C1C(C=NCC2CCCO2)=C(O)c2ccccc21` (stereo not given), the activation (GFP accumulation) was inconclusive: 7.88% [activator] [at 9.17 µM, untreated = 0%, 10 µM MG-132 = 100%]. With `CCOC(=O)C1CCCN(Cc2cc(Br)c(OC)cc2OC)C1` (stereo not given) the activation (GFP accumulation) was inconclusive: -12.3% [activator]. In the case of `Cc1nc2cc(C(=O)O)ccc2n1-c1ccc(F)cc1F`, the activation (GFP accumulation) is reported as inconclusive: 30.3% [activator]. With `O=C(OCC(=O)N1CCN(C(=O)COC(=O)c2ccncc2)CC1)c1ccncc1` the activation (GFP accumulation) was inconclusive: -11.2% [activator]. With `CCOc1ccc(C2C(C#N)=C(N)N3C(=C2C#N)Sc2ccccc23)cc1` (stereo not given) the activation (GFP accumulation) was inconclusive: 32.5% [activator]. For `Brc1ccc2ncnc(Nc3ccc(N4CCOCC4)cc3)c2c1`, the activation (GFP accumulation) was inconclusive: 30.4% [activator]. For `CC(C)(C)/C(O)=C(/C#N)c1nc2ccccc2[nH]1`, the activation (GFP accumulation) was “inactive”. In the case of `CCn1cc(C(=O)O)c(=O)c2ccc(Cc3ccccc3)nc21`, the activation (GFP accumulation) is reported as “inactive”. In the case of `CCc1ccc(-c2nc(CSCC(=O)NCCCN3CCCC3=O)c(C)o2)cc1`, the activation (GFP accumulation) is reported as inconclusive: -10.5% [activator]. In the case of `O=C(Nc1ccc2c(c1)OCO2)c1cccc(S(=O)(=O)N2CCCC2)c1`, the activation (GFP accumulation) is reported as “inactive”. For `COc1ccc(CCNC(=O)C2CC(=O)N(c3ccccc3)C2)cc1OC` (stereo not given), the activation (GFP accumulation) was inconclusive: -1.64% [activator] [at 9.17 µM, untreated = 0%, 10 µM MG-132 = 100%]. With `CC1CCc2c(sc3ncnc(N4CCOCC4)c23)C1` (stereo not given) the activation (GFP accumulation) was inconclusive: 31.8% [activator] [at 9.17 µM, untreated = 0%, 10 µM MG-132 = 100%]. With `CC(C)(C)NC(=O)Nc1ccc2nccnc2c1` the activation (GFP accumulation) was inconclusive: 13% [activator]. In the case of `COc1ccc(-c2cc(C(=O)NCc3cccnc3)no2)cc1OC`, the activation (GFP accumulation) is reported as inconclusive: 17% [activator]. In the case of `Nc1nc(NCCc2ccc(O)cc2)nc2nc(-c3ccco3)nn12`, the activation (GFP accumulation) is reported as “inactive”. For `CCOc1cc(S(=O)(=O)n2c(C)nc3ccccc32)ccc1F`, the activation (GFP accumulation) was “inactive”. In the case of `O=C(O)C1(P(=O)(c2ccccc2)c2ccccc2)CCC1`, the activation (GFP accumulation) is reported as inconclusive: 37.6% [activator] [at 9.17 µM, untreated = 0%, 10 µM MG-132 = 100%]. In the case of `COc1ccc(CN2CCN(c3ccccn3)CC2)c(OC)c1`, the activation (GFP accumulation) is reported as inconclusive: -13.6% [activator] [at 9.17 µM, untreated = 0%, 10 µM MG-132 = 100%]. For `COCCNC(=O)c1csc2c1CCCC2`, the activation (GFP accumulation) was inconclusive: 30.8% [activator]. In the case of `COc1ccc(CNc2nc(SCC(=O)NCc3ccco3)nc3ccccc23)cc1`, the activation (GFP accumulation) is reported as “inactive”. In the case of `COc1ccc(C2CC(c3c(O)cc(C)oc3=O)=NCCS2)c(OC)c1` (stereo not given), the activation (GFP accumulation) is reported as inconclusive: 12.8% [activator] [at 9.17 µM, untreated = 0%, 10 µM MG-132 = 100%]. In the case of `CCCC(=O)C1=C(O)C(C(=O)OC)C(C)(C)CC1=N` (stereo not given), the activation (GFP accumulation) is reported as inconclusive: 32.1% [activator]. With `Cc1ccc(N2CC(C(=O)OCc3ccccc3)CC2=O)cc1` (stereo not given) the activation (GFP accumulation) was inconclusive: 32.9% [activator]. With `CN1CCN(C(=O)c2ccc(Cl)c(S(=O)(=O)N3CCCCC3)c2)CC1` the activation (GFP accumulation) was inconclusive: 34.9% [activator]. For `COc1ccc(-c2c3c(=O)n(C)c(=O)n(C)c3c3nnc4ccccc4n23)cc1`, the activation (GFP accumulation) was inconclusive: 143% [activator]. For `CCCOc1ccc(S(=O)(=O)NCc2ccc(OC)cc2)cc1`, the activation (GFP accumulation) was inconclusive: 31.8% [activator]. In the case of `COc1cccc(Cn2c(=O)c(C)nc3cnc(N(C)C)nc32)c1`, the activation (GFP accumulation) is reported as “inactive”. For `C=CCSC1=N/C(=C\c2ccsc2)C(=O)S1`, the activation (GFP accumulation) was inconclusive: 13% [activator]. With `O=C(C1CCC1)N1CCc2cc(S(=O)(=O)NCc3ccco3)ccc21` the activation (GFP accumulation) was inconclusive: 13.8% [activator]. With `CN(C)c1oc(-c2ccc(OCc3ccccc3)cc2)nc1C#N` the activation (GFP accumulation) was “inactive”. In the case of `CCOC(=O)NC(NC(=O)OCC)C(=O)c1ccc(F)cc1`, the activation (GFP accumulation) is reported as inconclusive: -4.31% [activator]. For `CC(=O)[C@H](CC(C)C)NC(=O)[C@@H](CC(C)C)NC(=O)[C@H](CC(C)C)NC(=O)OCc1ccccc1`, the Potency was active: 0.794 µM. For `O=C(NCc1ccco1)C1CCC(CNS(=O)(=O)c2cccc3cccnc23)CC1` (stereo not given), the activation (GFP accumulation) was inconclusive: -2.71% [activator]. In the case of `CN(C)c1ccc(Nc2nc(-c3cccnc3)cs2)cc1`, the activation (GFP accumulation) is reported as inconclusive: 1.17% [activator] [at 9.17 µM, untreated = 0%, 10 µM MG-132 = 100%]. For `CN(c1nc2ccccc2n2c(-c3ccco3)nnc12)S(=O)(=O)c1ccccc1`, the activation (GFP accumulation) was inconclusive: 3.33% [activator]. With `CCN(CC)c1ccc(C2C(C(=O)Nc3ccccn3)=C(C)NC3=C2C(=O)CC(C)(C)C3)cc1` (stereo not given) the activation (GFP accumulation) was inconclusive: 31% [activator] [at 9.17 µM, untreated = 0%, 10 µM MG-132 = 100%]. For `C=CCOC(=O)C1=C(C)NC(=O)NC1c1ccc(OC(=O)c2ccco2)c(OC)c1` (stereo not given), the activation (GFP accumulation) was inconclusive: 36.3% [activator]. In the case of `O=C(NCc1ccco1)c1cc(S(=O)(=O)N2CCOCC2)ccc1Cl`, the activation (GFP accumulation) is reported as inconclusive: 35.2% [activator] [at 9.17 µM, untreated = 0%, 10 µM MG-132 = 100%]. With `CN(C)C(=O)c1ccc(-c2cc(NCc3cccnc3)ncn2)cc1` the activation (GFP accumulation) was “inactive”. In the case of `CCc1nnc(NC(=O)Cn2nnc(-c3ccccc3F)n2)s1`, the activation (GFP accumulation) is reported as “inactive”. For `CCOC(=O)Cc1csc(-n2sc3ccccc3c2=O)n1`, the activation (GFP accumulation) was “inactive”. In the case of `c1ccc(COn2nnc3ccccc32)c(COn2nnc3ccccc32)c1`, the activation (GFP accumulation) is reported as “inactive”. With `CCN(CC)C(=O)CSc1nnc(-c2cnccn2)n1-c1ccc(C)cc1` the activation (GFP accumulation) was inconclusive: 31.9% [activator]. In the case of `Cc1cc2cc(CNC(=O)Nc3ccccc3)ccc2n1C`, the activation (GFP accumulation) is reported as “inactive”. For `Cn1c(=O)cc(OCC(=O)NCCCN2CCN(c3ccccc3F)CC2)c2ccccc21`, the activation (GFP accumulation) was inconclusive: -11.2% [activator]. For `OCCN1CCN(c2ncnc3nc[nH]c23)CC1`, the activation (GFP accumulation) was “inactive”. With `COc1ccc(NC(=O)CSc2nncs2)cc1OC` the activation (GFP accumulation) was inconclusive: 37.7% [activator]. For `COC(=O)CN1C(=O)C(O)(CC(=O)c2ccc(Cl)cc2)c2ccccc21` (stereo not given), the activation (GFP accumulation) was inconclusive: 12.3% [activator]. With `COc1cccc(Nc2ncc3nc(-c4cccs4)c(=O)n(CCC#N)c3n2)c1` the Potency was active: 6.31 µM. For `COc1ccc2oc(=O)c(C(=O)N3CCN(C45CC6CC(CC(C6)C4)C5)CC3)cc2c1`, the activation (GFP accumulation) was “inactive”. With `CCOC(=O)c1ccc(NC(=O)Nc2ccc3c4c(cccc24)C(=O)N3CC)cc1` the activation (GFP accumulation) was inconclusive: 103% [activator]. In the case of `CC1=C(C(=O)N(C)C)C(c2cccc(Cl)c2)NC(=O)N1` (stereo not given), the activation (GFP accumulation) is reported as “inactive”. For `O=C(COc1ccc(Cl)cc1Cl)NCc1ccncc1`, the activation (GFP accumulation) was inconclusive: -2.91% [activator] [at 9.17 µM, untreated = 0%, 10 µM MG-132 = 100%]. With `CCn1c(SCC(=O)N2CCCc3ccccc32)nc2ccccc2c1=O` the activation (GFP accumulation) was “inactive”. With `CCOc1ccc(NC(=O)CCNS(=O)(=O)c2ccc3c(c2)c(=O)n(C)c(=O)n3C)cc1` the activation (GFP accumulation) was inconclusive: 22.8% [activator]. For `O=C(CCCOc1ccccc1)n1nnc2ccccc21`, the activation (GFP accumulation) was inconclusive: 37.5% [activator]. In the case of `O=C(Nc1cccc(F)c1)N1CCCC2(CCN(C(=O)c3ccncc3)CC2)C1`, the activation (GFP accumulation) is reported as “inactive”. For `Cc1nc2ccc(Cl)cc2nc(C)/c1=N\O`, the activation (GFP accumulation) was “inactive”. In the case of `COc1ccccc1N1CCN(C(CNC(=O)c2ccc3c(c2)OCO3)c2cccnc2)CC1` (stereo not given), the activation (GFP accumulation) is reported as inconclusive: 39.4% [activator]. With `CCN1C2=C(C(=O)CCC2)C(c2ccc(O)c(Br)c2)C2=C1CCCC2=O` the activation (GFP accumulation) was inconclusive: 30.9% [activator]. With `Cc1cccc2sc(NC(=O)C3CCCN(S(=O)(=O)c4cccc5nonc45)C3)nc12` (stereo not given) the activation (GFP accumulation) was inconclusive: 118% [activator].
